These results are taken from PubChem BioAssay (NCI).

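Following 48 hours of exposure in 96-well plates, responses at five concentrations were used to interpolate endpoints linearly. GI50 is the concentration that inhibits growth by half. TGI: concentration producing complete growth inhibition.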 Where only a bound is given, the exact number is not on record here.

The assay deals with NCI-H322M lung. Kind of assay: NCI-60 cell line screen, 48 h.

As for `CCOC(=O)NC(=O)c1cn(CCCOC(=O)CCCCCCCCC(=O)OCCCn2cc(C(=O)NC(=O)OCC)c(=O)n(C)c2=O)c(=O)n(C)c1=O`, the TGI is more than 100 µM.
Consider `COc1ncc(-c2ccc3nccc(C#CCCCCC(=O)O)c3c2)cc1NS(=O)(=O)c1ccc(F)cc1F`, for which the GI50 is 0.456 µM and the TGI was found to be 12.7 µM.
With `COc1cc(/C=C2/SC(c3ccccc3)N(c3cccc(NC(C)=O)c3)C2=O)cc(OC)c1OC` (stereo not drawn), the TGI was more than 100 µM.
`COc1cc(/C=C/C(=O)c2ccc(Nc3nc(Nc4ccc(F)cc4)nc(Nc4ccc(Cl)cc4)n3)cc2)cc(OC)c1OC`: the GI50 was 39.7 µM and the TGI is more than 100 µM.
With `CCOP(=S)(OCC)Oc1ccc2c(c1)OC(=O)C1(Cl)C2(C)C2(Cl)C(=O)Oc3cc(OP(=S)(OCC)OCC)ccc3C12C` (stereo not drawn), the TGI came out at 29.8 µM.
`Cn1c(C(O)C2(c3cccnc3)SCCCS2)cc2ccccc21` (stereo not drawn) showed a TGI of more than 100 µM.
In turn, `c1ccc(NNC2=NCCN2)cc1` returned a TGI of more than 100 µM.
Take `N#C/C(=C\c1cn(Cc2ccccc2)c2ccccc12)C(=O)Nc1ncc(Cc2ccccc2Cl)s1`: the GI50 was 2.74 µM and the TGI was more than 100 µM.
Consider `Cc1ccc(/C(=N/NS(=O)(=O)c2ccc([N+](=O)[O-])cc2)Sc2cc(Cl)c(C)cc2S(N)(=O)=O)cc1`, for which the GI50 is 18.9 µM and the TGI is more than 100 µM.
Regarding `CC1(C)OC(=O)C(c2cccs2)C(=O)O1`, the TGI is more than 100 µM.
Take `O=C(Nc1cccc(-n2ccc3c(NC(=O)c4ccccc4)nccc32)c1)Nc1ccc(Cl)c(C(F)(F)F)c1`: the GI50 is 1.19 µM and the TGI was more than 100 µM.
As to `CC(=O)[CH-]C(=O)c1ccccc1.CC(=O)[CH-]C(=O)c1ccccc1.CCN(CC)CC[O-].CCN(CC)CC[O-].Cl.[Hf+4]`, the GI50 was more than 100 µM and the TGI was more than 100 µM.
`O=C1c2ccccc2C(=O)N1C/C=N/NS(=O)(=O)c1ccc(F)cc1`: the TGI was more than 100 µM.
On the same count and under the same terms, with `O=C(CCC(C(=O)OCc1ccccc1)C(=O)OCc1ccccc1)Nc1ccc(OCc2ccccc2)cc1` the figure was more than 100 µM.
Consider `CCOC(=O)c1ccc2c(c1)[n+](=O)c(C(=O)C1CCCS1)c(C(F)(F)F)n2[O-]` (stereo not drawn), for which the GI50 is 1.59 µM and the TGI is 3.05 µM.
On to `Cc1ccc(C)c2c1C/C(=C\c1ccccc1C(=O)O)C2=O`, for which the TGI was more than 100 µM.
